B1: GPR68, Q15743 (parent)
chain: MGNITADNSSMSCTIDHTIHQTLAPVVYVTVLVVGFPANCLSLYFGYLQIKARNELGVYLCNLTVADLFYICSLPFWLQYVLQHDNWSHGDLSCQVCGILLYENIYISVGFLCCISVDRYLAVAHPFRFHQFRTLKAAVGVSVVIWAKELLTSIYFLMHEEVIEDENQHRVCFEHYPIQAWQRAINYYRFLVGFLFPICLLLASYQGILRAVRRSHGTQKSRKDQIQRLVLSTVVIFLACFLPYHVLLLVRSVWEASCDFAKGVFNAYHFSLLLTSFNCVADPVLYCFVSETTHRDLARLRGACLAFLTCSRTGRAREAYPLGAPEASGKSGAQGEEPELLTKLHPAFQTPNSPGSGGFPTGRLA

The variants in data set [1] derive from B1. The experiment in a line: cAMP reporter score (Enrich2 score, wild type = 0); higher = more signal; HEK293T, FACS bins.
Data set [2] covers variants of B1. The experiment in a line: surface expression score (Enrich2 score, wild type = 0); higher = more signal; HEK293T, FACS bins.

Scores with a large standard error are left out. Two further conditions of the source, in which the scores hardly spread, are not listed. Names with del lack the residues named; names with ins carry added residues between the positions named. For some of these results: How much ogerin was present is not stated here.

Regarding MGNITADNSSMSCTIDHTIHQTLAPVVYVTVLVVGFPANCLSLYFGYLQIKARNELGVYLCNLTVADLFYICSLPFWLQYVLQHDNWSHGDLSCQVCGILLYENIYISVGFLCCISVDRYLAVAHPFRFHQFRTLKAAVGVSVVIWAKELLTSIYFLMHEEVIEDENQHRVCFEHYPIQAWQRAINYYRFLVGFLFPICLLLASYQGILRAVRRSHGTQKSRKDQIQRLVLSTVVIFIACFLPYHVLLLVRSVWEASCDFAKGVFNAYHFSLLLTSFNCVADPVLYCFVSETTHRDLARLRGACLAFLTCSRTGRAREAYPLGAPEASGKSGAQGEEPELLTKLHPAFQTPNSPGSGGFPTGRLA [L238I], the cAMP reporter score is 0.299 in data set [1] (pH 5.5); 0.116 in data set [1] (pH 6); 0.623 in data set [1] (pH 6, modulator: ogerin); -0.031 in data set [1] (pH 6.5, modulator: ogerin). In data set [2], the surface expression score was 0.523.

Consider MGNITADNSSMSCTIDHTIHQTLAPVVYVTVLVVGFPANCLSLYFGYLQIKARNELGVYLCNLTVADLFYICSLPFWLQYVLQHDNWSHGDLSCQVCGILLYENIYISVGFLCCISVDRYLAVAHPFRFHQFRTLKAAVGVSVVIWAKELLTSIYFLMHEEVIEDENQHRVCFEHYPIQAWQRAINYYRFLVGFLFPICLLLASYQGILRAVRRSHGTQKSRKDQIQRLVLSTVVIFKACFLPYHVLLLVRSVWEASCDFAKGVFNAYHFSLLLTSFNCVADPVLYCFVSETTHRDLARLRGACLAFLTCSRTGRAREAYPLGAPEASGKSGAQGEEPELLTKLHPAFQTPNSPGSGGFPTGRLA [L238K], for which the cAMP reporter score in data set [1] (pH 5.5) was -0.656; in data set [1] (pH 6), -1.88; in data set [1] (pH 6, modulator: ogerin) it was -1.41; in data set [1] (pH 6.5, modulator: ogerin), -1.18. Moreover, the surface expression score in data set [2] is -2.34.

Turning to MGNITADNSSMSCTIDHTIHQTLAPVVYVTVLVVGFPANCLSLYFGYLQIKARNELGVYLCNLTVADLFYICSLPFWLQYVLQHDNWSHGDLSCQVCGILLYENIYISVGFLCCISVDRYLAVAHPFRFHQFRTLKAAVGVSVVIWAKELLTSIYFLMHEEVIEDENQHRVCFEHYPIQAWQRAINYYRFLVGFLFPICLLLASYQGILRAVRRSHGTQKSRKDQIQRLVLSTVVIFGACFLPYHVLLLVRSVWEASCDFAKGVFNAYHFSLLLTSFNCVADPVLYCFVSETTHRDLARLRGACLAFLTCSRTGRAREAYPLGAPEASGKSGAQGEEPELLTKLHPAFQTPNSPGSGGFPTGRLA [L238G], the cAMP reporter score in data set [1] (pH 5.5) stood at 1.01; in data set [1] (pH 6, modulator: ogerin) it was 0.509; in data set [1] (pH 6.5, modulator: ogerin), 0.208. The surface expression score in data set [2] was -0.65.

Take MGNITADNSSMSCTIDHTIHQTLAPVVYVTVLVVGFPANCLSLYFGYLQIKARNELGVYLCNLTVADLFYICSLPFWLQYVLQHDNWSHGDLSCQVCGILLYENIYISVGFLCCISVDRYLAVAHPFRFHQFRTLKAAVGVSVVIWAKELLTSIYFLMHEEVIEDENQHRVCFEHYPIQAWQRAINYYRFLVGFLFPICLLLASYQGILRAVRRSHGTQKSRKDQIQRLVLSTVVIFHACFLPYHVLLLVRSVWEASCDFAKGVFNAYHFSLLLTSFNCVADPVLYCFVSETTHRDLARLRGACLAFLTCSRTGRAREAYPLGAPEASGKSGAQGEEPELLTKLHPAFQTPNSPGSGGFPTGRLA [L238H]: the cAMP reporter score in data set [1] (pH 5.5) was -1.55; in data set [1] (pH 6), -0.105; in data set [1] (pH 6, modulator: ogerin) it was -1.21; in data set [1] (pH 6.5, modulator: ogerin), -0.34. The surface expression score in data set [2] was -1.44.

For the origin of these results see the GPR68 mutational scans of Howard et al. (2025).
